# Measured values reported in ChEMBL document CHEMBL1201862, “PubChem BioAssay data set” (2004).
#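 These data come from cells grown in 96-well plates and exposed to compound for 48 hours at five concentrations. GI50 marks 50% less growth.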 Calls of active or inactive are those of the source. Rule as the data show it: active = GI50 up to about 1.1 µM and inactive = higher.
# Tested on: NCI-H322M
# Experiment: NCI tumour cell line growth inhibition, 48 h
row,Structure (SMILES),GI50
1,CCCCCCCCCC(=O)OCC1(CO)C/C(=C/CC(C(C)C)C(C)C)C(=O)O1 (stereo not drawn),inactive: 66.8 µM
2,Cc1ccc(N2C(=O)C(=CN)C(=O)N(c3ccc(C)cc3)C2=O)cc1,inactive: 59.2 µM
3,CCCn1cnc2c(SCC(=O)O)nc(N)nc21,inactive: > 100 µM
4,COc1ccc2nc(-c3ccccn3)cc(O)c2c1,inactive: 46.6 µM
5,C=C1Cc2cc(OC)c(OC)c(OC)c2-c2ccc(SC)c(=O)cc21,active: < 0.01 µM
6,Cc1nc2nn(C)cc2c(=O)n1/N=C/c1ccccc1,inactive: > 100 µM
7,Cn1c2ccccc2c(=O)c2c(O)cc3c(c21)CC(C1(C)CO1)O3 (stereo not drawn),inactive: 11.5 µM
8,O=C1C(=C(C(=O)c2ccccc2)C(=O)c2ccccc2)OC(c2ccccc2)=C1C(=O)c1ccccc1,inactive: 7.82 µM
9,C[N+](C)(C)CCOC(=O)/C=C/c1c[nH]cn1,inactive: > 500 µM
10,CC(C)(C)n1c(=O)n(C(=O)C(Cl)(Cl)Cl)n(C(=O)C(Cl)(Cl)Cl)c1=O,inactive: > 100 µM
11,O=C1CCCC2COc3ccc(O)c1c32 (stereo not drawn),inactive: > 100 µM
12,CC(C)/C(Cl)=N/OC(=O)Nc1cccc(C(F)(F)F)c1,inactive: 6.97 µM
13,[N-]=[N+]=NC1(c2ccccc2)C(=O)C(Cl)=C(c2ccccc2)N(c2ccccc2)C1=O (stereo not drawn),inactive: > 100 µM
14,CN(CC1NCCCC1O)C12CC3CC(CC(C3)C1)C2 (stereo not drawn),inactive: > 100 µM
15,CC(C)(C)c1ccc2c(c1)S(=O)(=O)Nc1cccc(c1)NS(=O)(=O)c1cc(C(C)(C)C)ccc1OCCOCCO2,inactive: > 100 µM
16,CCOC(=O)C(=O)Nc1c(C)cccc1C(C)(C)C,inactive: > 100 µM
17,N#CSC#CCCC#CSC#N,inactive: 21.2 µM
18,Cc1cc2c(cc1C)[n+]([O-])c(C(=O)CC(=O)C(=O)Nc1ccccc1C)c(C)[n+]2[O-],inactive: > 100 µM
19,COc1cc(/C=C2\N=C(c3ccccc3)N(c3nc4c(Cl)cc(Cl)cc4s3)C2=O)ccc1O,inactive: 38.8 µM
20,CC12NC(=C(C#N)C#N)C(C#N)=C3NC(N)=C(C#N)C(=C31)Oc1ccccc12 (stereo not drawn),inactive: 35.3 µM
21,COc1ccc(OC)c(NC(=O)CCC/C(CC(=O)c2ccc(O)c(OC)c2)=N\Nc2ccc([N+](=O)[O-])cc2)c1,inactive: > 100 µM
22,CC(NNC(=O)c1ccncc1)c1ccc(Cl)c(Cl)c1 (stereo not drawn),inactive: > 100 µM
23,CCN1C(=O)C(=C/C=C/c2ccc(N(CC)CC)cc2)C(=O)N(CC)C1=S,inactive: > 100 µM
24,C=CCOCn1ccc(N)nc1=O,inactive: > 100 µM

row,Structure (SMILES),GI50
1,CCC(=O)C(C(C)/C=C/CCSc1ccccc1)C(O)CCCCCC(=O)OC (stereo not drawn),inactive: > 100 µM
2,[N-]=[N+]=Nc1ccccc1C(=O)N1C(=O)c2ccccc2C(=O)N(C(=O)c2ccccc2N=[N+]=[N-])c2ccccc21,inactive: > 100 µM
3,O=C1c2ccccc2C(=O)N1CCc1nc(-c2ccccc2)c[nH]1,inactive: > 100 µM
4,Fc1nc(-c2c3ccccc3c3sc4ccccc4n23)nc(N2CCOCCOCCOCCOCC2)n1,inactive: > 100 µM
5,O=C1c2ccccc2-n2c1nc1ccc(Cl)cc1c2=O,inactive: > 100 µM
6,C=C(CN(C)C)C(=O)c1ccc(Oc2ccccc2)cc1,inactive: 28.4 µM
7,O=[N+]([O-])c1cccc(-c2oc(/C=N/c3ccccc3)c([N+](=O)[O-])c2-c2cccc([N+](=O)[O-])c2)c1,inactive: > 100 µM
8,N[C@@H](CCC(=O)NC(Cc1ccccc1)C(=O)NCP(=O)(O)O)C(=O)O (stereo partly drawn),active: 0.0551 µM
9,O=C(Cc1ccc(Cl)c(Cl)c1)NCCCN1CCN(CCCN2CCCCC2)CC1,inactive: 16.6 µM
10,Fc1cc(-c2ncc(Cl)cc2Cl)c2cccccc1-2,inactive: > 100 µM
11,Cc1cc(CN2CCCCC2)c(O)c(CN2CCCCC2)c1,inactive: > 100 µM
12,Cc1n[nH]c(=O)n1/N=C/c1ccc(F)cc1,inactive: > 100 µM
13,OC1COC(n2c3ccc(Br)cc3c3ccc4c5ccccc5[nH]c4c32)C(O)C1O (stereo not drawn),inactive: 4.84 µM
14,COc1ccc(C2N(NC(=O)c3ccncc3)C(=O)CS2(=O)=O)cc1F (stereo not drawn),inactive: > 100 µM
15,Cc1cccc2c(N)c3cccc(C(=O)NCCN4CCOCC4)c3nc12,active: 0.439 µM
16,COc1ccc(-c2c(-c3ccccc3)c(C)nc3[nH]c(=S)[nH]c(=S)c23)cc1OC,inactive: 14.2 µM
17,COc1ccc(CCNC(=O)CCc2ccccc2CO)cc1OC,inactive: > 100 µM
18,COC(=O)[C@H](Cc1ccccc1)NC(=O)/C(=C/C(C)C)NC(=O)[C@H](CCSC)NC=O,inactive: 57.9 µM
19,Cc1ccc(/C=C/C(=O)C(C)C)cc1,inactive: 92.9 µM
20,CC(Cc1ccccc1)Nc1ncnc2c1ncn2C1OC(CO)CC1O (stereo not drawn),inactive: > 100 µM
21,COc1ccc2c(c1)C=C(C(C)(C)C)NS2(=O)=O,inactive: > 100 µM
22,CCCCCCCCCCCC(=O)OCC1OC(n2cc(F)c(=O)[nH]c2=O)C(NC(=O)OCc2ccccc2)C(O)C1O (stereo not drawn),inactive: 20.1 µM
23,N[C@@H](CCC(=O)NCP(=O)(O)O)C(=O)O,inactive: > 100 µM
24,Cc1nc2ccccc2c(=O)n1NC(=O)c1ccccn1,inactive: > 100 µM

row,Structure (SMILES),GI50
1,O=Cc1ccc2c(c1)CC1(C2)Cc2ccc3c(c2C1)CCC3 (stereo not drawn),inactive: 16.9 µM
2,CCCCc1c2c(nc3c1CC/C(=C\c1ccc([N+](=O)[O-])cc1)C3=O)CCCC2,inactive: 2.9 µM
3,CC(=O)OCC1C(=O)OCC1C(=O)N1Cc2cc3ccccc3nc2C1 (stereo not drawn),inactive: 16.4 µM
4,C=C(C)C1CC/C(C)=C/CCC2(C)OC2CC/C(CO)=C\C1O (stereo not drawn),inactive: > 100 µM
5,O=C(O)CC1OCC=C2C[N+]3([O-])CCC45c6ccccc6NC4C1C2CC53 (stereo not drawn),inactive: > 100 µM
6,NCC(=O)NC1(c2cc3ccccc3s2)CCCCC1,inactive: 37.9 µM
7,COc1ccc(C2C(C#N)=C(S)N(C3OC(CO)C(O)C(O)C3O)C(C)=C2C(C)=O)cc1 (stereo not drawn),inactive: > 100 µM
8,COc1cc2c(c(OC)c1OC)-c1ccc(SC)c(=O)cc1C(CC(=O)Oc1ccccc1F)C2 (stereo not drawn),active: 0.065 µM
9,CN(C)CCCn1cnc2cc(Cl)c(Cl)cc21,inactive: > 100 µM
10,Cc1c2c(n(Cc3ccccn3)c1C)NN=C(C#N)S2(=O)=O,inactive: > 100 µM
11,Nc1cc(O)nc(SC2=NC(N)CC(O)C2)n1 (stereo not drawn),inactive: > 100 µM
12,Cc1ccc(C2=CC(=O)OC(C[P+](c3ccccc3)(c3ccccc3)c3ccccc3)(c3ccccc3)O2)cc1 (stereo not drawn),inactive: 17.4 µM
13,CC(C)=CCNc1nc(Cl)nc2[nH]cnc12,inactive: 29 µM
14,O=C(c1ccccc1Cl)n1oc2ccccc2c1=O,inactive: > 100 µM
15,CC(=O)O[C@H]1/C(=C/c2ccncc2)C[C@H]2[C@@H]3CC=C4C[C@@H](N5CCCC5)CC[C@]4(C)[C@H]3CC[C@]12C,inactive: 12.3 µM
16,CC(C)(C)c1cc(C#N)c2c(c1)C(=O)OC2(c1ccccc1)c1ccccc1C#N (stereo not drawn),inactive: > 100 µM
17,COC(=O)/C=C(/C=C1/C(C#N)=C(N)N(c2ccc(Cl)cc2)C1(C)/C(=C\C(=O)OC)C(=O)OC)C(=O)OC (stereo not drawn),inactive: 45.4 µM
18,[N-]=[N+]=N/C1=C/CCCCC(=O)C1,inactive: > 100 µM
19,NC(=S)Nc1ccc(S(=O)(=O)Nc2ccc(S(N)(=O)=O)cc2)cc1,inactive: > 100 µM
20,Cc1[nH]c2ccccc2c1C1Cc2ccccc2N1C(=O)/C=C/C=C/c1ccccc1 (stereo not drawn),inactive: > 100 µM
21,COC(=O)[C@]12CSC[C@H]1C[C@H](c1ccc(N(C)C)cc1)N2,inactive: > 100 µM
22,O=C1C=C(Br)C(=O)C(Br)=C1,inactive: > 100 µM
23,CC(C)(C)NC(=O)NC12CC3CC(CC(F)(C3)C1)C2,inactive: > 100 µM
24,CCC1(CC)N=C(C(F)(F)F)c2cc(C(=O)C(F)(F)F)c3ccccc3c2N1,inactive: 21.9 µM

row,Structure (SMILES),GI50
1,O=c1[nH]c2c(Nc3c4ccccc4nc4ccccc34)c([N+](=O)[O-])c(Nc3c4ccccc4nc4ccccc34)c([N+](=O)[O-])c2[nH]1,active: 0.942 µM
2,C[C@]12CC[C@H](O)CC1CCC[C@@H]2O (stereo partly drawn),inactive: > 100 µM
3,O=C1C(O)=C(CN(CCCl)CCCl)C(=O)c2ccccc21,inactive: 83 µM
4,COc1ccc(/C=N/N=C(\N)NO)c(O)c1,inactive: > 10 µM
5,CC(=O)c1c(P(=O)(OC(C)C)OC(C)C)nn(-c2ccc([N+](=O)[O-])cc2)c1C,inactive: > 100 µM
6,CCN1C(=O)N(C)C(O)c2c1nc1ccccn1c2=O (stereo not drawn),inactive: 30.1 µM
7,Cn1c(=O)c2c(ncn2CCNC(CO)C(O)c2ccc([N+](=O)[O-])cc2)n(C)c1=O (stereo not drawn),inactive: > 100 µM
8,CC1(C)OC(=O)C(C#N)=C1C[n+]1ccccc1,inactive: > 10 µM
9,CCCCc1ccc(Nc2nc(Cl)c3ncn(COCCOC(C)=O)c3n2)cc1,inactive: 17.2 µM
10,CCN(/N=C1\CC2C=CCN(C2)C(=O)Cc2c1[nH]c1ccccc21)S(=O)(=O)c1ccc(C)cc1 (stereo not drawn),inactive: > 100 µM
11,O=C1COCCN1C(=O)c1ccccc1Cl,inactive: > 100 µM
12,CC(=O)OCCCC(NC(=O)OC(C)(C)C)C(=O)NC(CCCOC(C)=O)C(=O)NC(Cc1ccc([N+](=O)[O-])cc1)C(=O)NCC(=O)OCc1ccccc1 (stereo not drawn),inactive: 20.3 µM
13,CC(=O)NC1C(O)C(O)C(CO)OC1n1nc(SCc2ccccc2)c(=O)[nH]c1=O (stereo not drawn),inactive: > 100 µM
14,CCOC1=C2N=C(Cc3ccc(F)cc3)NC2C(=O)c2ccccc21 (stereo not drawn),inactive: 27.4 µM
15,COc1cccc(C2c3cc4c(cc3OC(NNS(=O)(=O)c3ccc(C)cc3)C2C)OCO4)c1O (stereo not drawn),inactive: 32.1 µM
16,C=C1C(=O)C23C(CC(OC(C)=O)C1[C@@H]2OC(C)=O)C1(C)C(OC(C)=O)CCC(C)(C)C1C[C@@H]3OC(C)=O (stereo partly drawn),inactive: 1.73 µM
17,Brc1ccc2c(C3CN[C@@H](c4c[nH]c5cc(Br)ccc45)CN3)c[nH]c2c1 (stereo partly drawn),inactive: 3.52 µM
18,CC(C)(C)c1ccc(-c2nc3ccc(Cl)cc3c(=O)o2)cc1,inactive: 29 µM
19,COc1cc(C(c2c(O)c3ccccc3oc2=O)c2c(O)c3ccccc3oc2=O)ccc1O,inactive: 95.3 µM
20,COc1cc2c(cc1OCCOS(C)(=O)=O)N=C[C@@H]1CCCN1C2=O,inactive: > 100 µM
21,COc1cc(/C=C/c2ccc(OC(C)=O)cc2)cc(OC)c1OC,inactive: 49.9 µM
